Screen size: about 45,000 compounds; about 65 (0.1%) were called active. Calls come from the whole dose curve; as a rule, active = well fitted activation curve with a large enough effect; inconclusive = small, poorly fitted or top-dose-only effect; inactive = no such curve, though single readings can be large or run the other way. The list shows a part of the results.
biological target: Galactocerebrosidase (Homo sapiens) (UniProt P54803); test: A Novel Cell-Based Assay to Identify Small Molecules for B -Galactocerebrosidase; conditions: 145M-Twi-hGALC-G270D cells, HMU-beta-Gal fluorescence, 48 h; series mostly up to 57.5 µM; activation: at the top concentration; note: 0% is about no effect; nearly all actives have a fitted effect of over 65% in size
Sequence of UniProt P54803 (P54803 whole entry, looked up): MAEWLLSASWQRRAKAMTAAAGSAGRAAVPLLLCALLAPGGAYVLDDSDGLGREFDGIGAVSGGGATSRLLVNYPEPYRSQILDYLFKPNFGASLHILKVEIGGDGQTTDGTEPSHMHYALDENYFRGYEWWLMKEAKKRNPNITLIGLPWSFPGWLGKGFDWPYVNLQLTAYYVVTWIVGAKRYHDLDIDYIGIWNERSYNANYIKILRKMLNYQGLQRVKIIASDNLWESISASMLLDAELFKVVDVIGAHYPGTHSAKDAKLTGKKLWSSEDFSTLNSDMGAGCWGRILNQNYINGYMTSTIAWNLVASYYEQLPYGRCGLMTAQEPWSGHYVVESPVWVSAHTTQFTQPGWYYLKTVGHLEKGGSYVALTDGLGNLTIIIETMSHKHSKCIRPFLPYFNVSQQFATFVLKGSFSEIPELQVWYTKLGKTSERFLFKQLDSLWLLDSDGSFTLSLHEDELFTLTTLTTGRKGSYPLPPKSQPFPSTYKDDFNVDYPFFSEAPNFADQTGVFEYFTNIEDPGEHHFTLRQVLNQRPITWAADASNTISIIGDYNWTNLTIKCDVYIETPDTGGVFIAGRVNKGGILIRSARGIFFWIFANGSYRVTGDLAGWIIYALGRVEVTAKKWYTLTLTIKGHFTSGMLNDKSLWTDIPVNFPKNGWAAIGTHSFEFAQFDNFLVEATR
Method in brief: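 qHTS, 1536-well; 145M-Twi-hGALC-G270D cells (WT line also made) in DMEM/F12 + 10% FBS; compound incubation on live cells; HMU-β-gal 0.1 mM final, pH 5.2, NaTC; carbonate stop; fluorescence increase = enhanced residual activity.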

activation, inactive:
O=C(Nc1cccnc1)c1cc(-c2ccc(Cl)cc2)on1 -19.8%
O=C(Cn1cccc1C(=O)c1ccccc1)NCc1ccccc1Cl -9.7%
Cc1cccn2c(=O)cc(CSc3nnc(NC(=O)COc4ccccc4)s3)nc12 -32.6%
COC(=O)c1cc2sccc2n1CC(=O)Nc1ccc(OC)c(OC)c1 -25.9%
Cc1ccc(S(=O)(=O)NCc2nc3nc(C)cc(C)n3n2)cc1 19.8%
Cc1cccc(C)c1OCC(=O)NC(Cc1c[nH]c2ccccc12)C(=O)O (stereo unspecified) -7.6%
Cc1ccc(C)c(CN2CCCN(CC(=O)Nc3ccc(C)c(C)c3)S2(=O)=O)c1 -6.7%
COc1cc(C)nc(-n2nc(C)cc2OC)n1 -3.2%
Cc1ccc(-n2c(=O)c3c4c(sc3n(CC(=O)Nc3cccc(Cl)c3)c2=O)CCCCC4)cc1C -4.28%
CS(=O)(=O)Nc1ccc([N+](=O)[O-])cc1Oc1ccccc1 -7.39%
CCN(CC)CCCNC(=O)c1ccc(Cn2c(=O)[nH]c3cc(OC)c(OC)cc3c2=O)cc1 -10.1%
COc1cc(Cl)c(C)cc1NC(=O)CCc1nc2cccnc2n1Cc1cccs1 -35.9%
CCn1cc(C(=O)O)c(=O)c2cc(F)c(N3CCNC(C)C3)c(F)c21 (stereo unspecified) -19.1%
CCOC(=O)c1c(S(=O)(=O)N2CCC(C(=O)N3CCN(c4ccccc4F)CC3)CC2)c(C)n(C)c1C -11.7%
Cn1cc(C(=O)NCc2ccccc2Cl)c(=O)c2cc(S(=O)(=O)N3CCCCCC3)ccc21 -11.5%
Cc1cccc(Cn2c(SCc3ccc(C(=O)NC4CCCC4)cc3)nc3cccnc32)c1 -8.7%
COc1ccc(NC(=O)C2CCN(S(=O)(=O)c3c(C)noc3/C=C/c3cccs3)CC2)cc1 -19.6%
Cc1nn(-c2ccc(Cl)cc2)c2nc(-c3cccnc3)cc(C(F)(F)F)c12 -14.3%
COc1ccc(CCNC(=O)c2cn(C)c3ccc(S(=O)(=O)N4CCOCC4)cc3c2=O)cc1OC -16.6%
CC(C)N(Cc1ccccc1)C(=O)Cn1ncc2c3ccccc3n(Cc3ccccc3)c2c1=O -12.5%
CCOC(=O)c1ccc(NC(=O)CCCn2c(=O)c3cccn3c3cccnc32)cc1 -22%
CCn1cc(S(=O)(=O)c2cccc(Cl)c2)c(=O)c2cc(F)c(N3CCN(C)CC3)cc21 -7.82%
CN(Cc1ccccc1)C(=O)CCS(=O)(=O)c1ccc2c(c1)oc(=O)n2C -16.5%
COC(=O)c1ccccc1NC(=O)c1ccc(-c2nc(CSc3ccc(C)cc3)c(C)o2)cc1 1.22%
COc1ccc(OC)c(CNC(=O)c2ccc(NC(=O)c3nsc4ccccc34)cc2)c1 -6.32%
Cc1ccccc1OCCCCn1c(CCNC(=O)C(C)(C)C)nc2ccccc21 -21%
COc1ccc(OC)c(S(=O)(=O)NCC(c2ccco2)S(=O)(=O)c2ccccc2)c1 (stereo unspecified) -18.7%
COc1cccc(-c2noc(CCCC(=O)NCc3ccco3)n2)c1 -24.7%
O=C(CSc1ccccc1)NCc1ccc2c(c1)CCN2C(=O)c1ccccc1 -19.4%
COc1ccc(S(=O)(=O)NC(C)C)cc1-n1cnnn1 -22.5%
Cc1ccccc1Nc1nnc(-c2ccc(C)c(S(=O)(=O)N3CCN(C)CC3)c2)c2ccccc12 -16.2%
O=C(Cc1csc2ccccc12)NCc1ccc(F)cc1 -13.8%
O=C(Nc1ccc(OC(F)(F)F)cc1)C1CCCN(S(=O)(=O)c2ccc(Br)s2)C1 (stereo unspecified) -10.7%
COc1ccc(C(C(=O)Nc2ccc(C(C)C)cc2)N(C)C(=O)Cc2cccs2)cc1 (stereo unspecified) -11.4%
COc1ccc(Br)cc1CNC(=O)CN1C(=O)CCCc2ccccc21 -15.5%
C#CC(C)(CC)NC(=O)Cn1nnc(-c2ccc(OCc3ccccc3Cl)cc2)n1 (stereo unspecified) -2.23%
CC(C)(C)c1ccc(C(=O)Nc2nc3nc(-c4ccccc4)cc(=O)n3[nH]2)cc1 -21.7%
Cc1ccc(NC(=O)Cn2c(SCc3cccc(F)c3)nc3ccncc32)c(C)c1 -18.2%
COc1ccc(C(=O)NCC(c2cccnc2)N2CCN(c3ccccc3OC)CC2)cc1 (stereo unspecified) -8.3%
COc1cccc(NC(c2nnc(-c3ccccc3)o2)c2ccc(F)cc2Cl)c1 (stereo unspecified) -9.42%
CCc1ccc(C(=O)c2cn(CC(=O)Nc3ccc4c(c3)OCCO4)c3ccc(CC)cc3c2=O)cc1 -12%
Cc1ccc2oc(C(=O)Nc3nc(-c4ccc(F)cc4)ns3)c(C)c2c1 -9.9%
Cc1ccccc1OCC(=O)Nc1ccc(C(=O)OCc2cc(=O)n3c(C)csc3n2)cc1 2.05%
COCCCNC(=O)C1CCCN(c2ncnc3onc(C)c23)C1 (stereo unspecified) -16.4%
COc1ccc(CCNC(=O)c2ccc3c(Cl)c4c(nc3c2)CCCC4)cc1OC -17.7%
CCCN(CCC)C(=O)c1c[nH]c2ccc(S(=O)(=O)N(C)c3ccc(OCC)cc3)cc2c1=O -7.97%
Cc1cccc(N2CCN(C(=O)c3cc4c(=O)[nH]c5ccc(C)cc5c4s3)CC2C)c1 (stereo unspecified) 1.05%
COc1ccc(CNC(=O)CSCc2cnn(-c3ccccc3)c2-n2cccc2)cc1OC 3.87%
CC(=O)N1CCN(c2nc3c(F)cc(F)cc3s2)CC1 -23.1%
COc1ccc(Cn2c(CNC(=O)Cc3cccc([N+](=O)[O-])c3)nc3cccnc32)cc1 -9.58%
COc1cccc(NC(=O)CSC2=Nc3ccccc3C3=NC(CC(=O)NCc4cccs4)C(=O)N23)c1 (stereo unspecified) -4.54%
COc1ccc(C2c3c(oc4cc(C)cc(C)c4c3=O)C(=O)N2Cc2ccco2)cc1OC (stereo unspecified) -9.47%
CCOC(=O)Cn1c(=O)n(CC2CCCO2)c2nc(-c3ccccc3Cl)nc(C(N)=O)c21 (stereo unspecified) -13.8%
Cc1cc(C)cc(NC(=O)c2sc3nc[nH]c(=O)c3c2C)c1 -2.55%
CCOc1ccccc1NC(=O)C1=C(C)Nc2ncnn2C1c1sccc1C (stereo unspecified) -12.4%
Cc1ccc(CNC(=O)c2c(-c3ccc(Br)cc3)noc2C)o1 -5.92%
O=C(CCCn1c(=O)c2cccn2c2cccnc21)Nc1ccccc1C(F)(F)F -4.05%
CCOC(=O)c1ccc(CN(Cc2ccc(OC)cc2)S(=O)(=O)c2cccc(C(F)(F)F)c2)cc1 3.16%
CC1=C(C(=O)Nc2ccccc2C)C(c2cccs2)n2nc(SCc3cc(C)ccc3C)nc2N1 (stereo unspecified) -14.5%
O=c1c(N2CCc3ccccc3C2)csc2ccc(F)cc12 -8.06%
COc1ccccc1C(=O)Nc1c(C(=O)c2ccccc2)oc2ccccc12 -7.54%
CCOc1ccc(N(CC)C(=O)c2noc3c2COc2ccc(C)cc2-3)cc1 4.58%
Cc1c(C(=O)NCc2ccccc2)oc2ccc(S(=O)(=O)N3CCC(C)CC3)cc12 -6.3%
O=C(NCCc1ccc(Cl)cc1)C(=O)NCC(c1ccco1)S(=O)(=O)c1ccccc1 (stereo unspecified) -2.5%
Cc1ccc(NC(=O)C(=O)NCC(c2cccnc2)N2CCN(C)CC2)cc1 (stereo unspecified) -15.3%
CCn1c(CN2CCCCC2)nc2cc(NC(=O)COc3ccccc3C(C)(C)C)ccc21 -25.4%
Cc1coc2c1c(C)cc1oc(=O)c(CC(=O)NCCc3ccc(Cl)cc3)c(C)c12 -10.4%
COc1ccc(CCNC(=O)c2c(O)nc3c(C)cccn3c2=O)cc1OC -4.23%
CCn1c2c(c(=O)n3ncc(C(=O)Nc4ccc(C(=O)OC)cc4)c13)CN(Cc1ccc(OC)cc1)CC2 -8.76%
COc1ccc(C)cc1NC(=O)c1ccc2nc(Cc3ccccc3)oc2c1 -18%
CCOc1ccc(CC(=O)NCCS(=O)(=O)N2CCN(c3ccc(OC)cc3)CC2)cc1 -1.28%
CCn1c2ccccc2c2cc(CN3CCN(Cc4ccc(OC)c(OC)c4)CC3)ccc21 -10.7%
CCCn1c(/C=C/c2ccccc2)nc2ccccc21 -6.81%
COc1ccc(NC(=O)c2c(N)c(C(=O)c3ccc(OC)cc3)n3ccccc23)cc1 -7.55%
Cc1c(C(=O)NCCc2ccc(Cl)cc2)cccc1-n1cnc2cccnc21 -14.3%
COc1ccc(N2CCN(C(=O)CSc3nc4ccccc4nc3Cc3ccc(Cl)cc3)CC2)cc1 -0.707%
Cc1ccc(-n2c3c(c(=O)[nH]c2=O)C(NS(=O)(=O)c2ccc(Cl)cc2)(C(F)(F)F)C(=O)N3)cc1 (stereo unspecified) -7.93%
Fc1cccc(NCc2ccccc2-c2nnc(-c3ccccc3Cl)o2)c1 -12.8%
O=c1c2oc3ccccc3c2n(Cc2ccc(Cl)cc2)c(=O)n1Cc1ccc2c(c1)OCO2 -0.426%
NC(=O)C1CCN(c2ncnc3c2cnn3-c2ccccc2)CC1 3.11%
COc1ccc(C)cc1NC(=O)C1CCCN(S(=O)(=O)c2ccc3c(c2)CCCN3C(C)=O)C1 (stereo unspecified) -15.8%
CCC(C)NS(=O)(=O)c1ccc(N2CCCCS2(=O)=O)cc1 (stereo unspecified) -15.9%
Cc1ccc(C(=O)Nc2ccc(C(=O)O)cc2)cc1S(=O)(=O)Nc1ccccc1 -15.5%
COc1cccc2c1cc1c(=O)n(CC(=O)N3CCCCC3)nc(C)n12 -7.11%
CCC(C)(C)NC(=O)C1CCC(CNS(=O)(=O)c2ccc3c(c2)CC(C)N3C(C)=O)CC1 (stereo unspecified) -10.1%
Cc1ccc(Cl)cc1N1CCN(C2(c3ccccc3)C(=O)c3ccccc3C2=O)CC1 3.58%
COc1cccc(NC(=O)Cn2c(=O)n(-c3cccc(OC)c3)c(=O)c3sc4ccccc4c32)c1 0.565%
CCOCCCNC(=O)CN1C(=O)c2cccnc2Sc2ccccc21 -6.24%
CCCCNC(=O)CCCN1C(=O)CCn2nc(-c3cccn3C)cc21 -12.6%
CCC(CC)C(=O)Nc1nnc(SCc2cc(=O)c3ccccc3[nH]2)s1 7.43%
COCCNC(=O)CSc1nc2cc3c(cc2c(=O)n1CCCC(=O)NCCc1ccc(OC)c(OC)c1)OCO3 -12.4%
O=C(Cn1c(SCCOc2ccccc2Cl)nc2ccccc21)N1CCOCC1 14.3%
Fc1ccccc1N1CCN(c2nnc(C(F)(F)F)c3nnn(Cc4ccccc4)c23)CC1 6.65%
COc1ccc2c(CNCc3ccco3)c(C(=O)O)n(Cc3ccc(F)cc3Cl)c2c1 -19.7%
CN(C)S(=O)(=O)N(CC(=O)Nc1ccc(Br)cc1F)c1ccccc1 -9.18%
CCc1ccc(NC(=O)CSc2nc(-c3ccccc3)no2)cc1 -22.1%

— PubChem BioAssay AID1159614 (National Center for Advancing Translational Sciences (NCATS), 2016)
